# Results taken from the DeepSol protein solubility set.
# Experiment: soluble on expression in E. coli; label from the status in PepcDB or PDB records
sequence,measurement,value
MMTVAHMWFDNQIHEADTTEDQSGATFDKRSPTWTALSRIAGLCNRAVFKAGQENISVSKRDTAGDASESALLKCIELSCGSVRKMRDRNPKVAEISFNSTNKYQLSIHEREDNPQSHVLVMKGAPERILDRCSSILVQGKEIPLDKEMQDAFQNAYLELGGLGERVLGFCQLNLPSGKFPRGFKFDTDELNFPTEKLCFVGLMSMIDHHHHHH,soluble on expression in E. coli,soluble
